# Reference: PubChem BioAssay AID624296 (National Center for Advancing Translational Sciences (NCATS), 2012)
# Values joined by “and” are separate entries in the source; they are usually repeats but may differ in a detail not shown here. Equal entries are not always repeated. Hit rate of the full screen: of about 350,000 compounds, about 9,900 (2.8%) were called active. The shares of active, inactive and inconclusive entries below differ from those in the screen. Calls follow the shape of the dose curve; as a rule, active = well fitted activation curve with a large enough effect; inconclusive = small, poorly fitted or top-dose-only effect; inactive = no such curve, though single readings can be large or run the other way. No potency is given beside an inconclusive call; the fits are too rough. Where a structure was tested more than once in an assay, its records may differ in their call.
# Assay: A quantitative high throughput screen for small molecules that induce DNA re-replication in MCF 10a normal breast cells. Also: nearly all actives have a fitted effect of over 50% in size.
# Conditions: MCF 10A DNA re-replication, Hoechst nuclear intensity, 48 h; series mostly up to 46.1 µM
# Potency is read from the fitted curve at half-maximal effect; tags tell the direction and shape of the fitted curve.
row,Compound,Potency
1,CC(Cc1ccccc1)NCc1ccccc1Cl (stereo not given),inactive
2,CN(Cc1ccc(OC(F)F)cc1)C(=O)c1ccccc1Sc1ccccc1C#N,"inconclusive [activator, full curve, poor fit]"
3,CC(=O)O[C@@]12CO[C@@H]1C[C@H](OC1OCC(O)C(O)C1O)[C@@]1(C)C(=O)[C@H](O)C3=C(C)[C@@H](OC(=O)[C@H](O)[C@@H](NC(=O)c4ccccc4)c4ccccc4)C[C@@](O)([C@@H](OC(=O)c4ccccc4)C12)C3(C)C (stereo not given in full),active: 0.58 µM
4,O=C(c1cc(F)ccc1F)C1CCCN(Cc2cccc(Cl)c2)C1 (stereo not given),"inconclusive [activator, single point]"
5,COc1ccc(-n2c(-c3ccccc3Br)nc3ccccc3c2=O)cc1,"inconclusive [activator, full curve, poor fit]"
6,C[C@]12CC[C@H](O)CC1=CC[C@@H]1[C@@H]2CC[C@]2(C)C(=O)CC[C@@H]12,inactive
7,CC[C@H](C)/C=C(C)/C=C/C1=CC2=C(Cl)C(=O)[C@](C)(OC(C)=O)C(=O)C2=CO1,"inconclusive [activator, full curve, poor fit]"
8,CCCCCn1c(=O)c(C(=O)NCCc2ccccc2)c(O)c2ccccc21,active: 23.1 µM
9,O=C1NC(=O)C2(Cc3ccccc3N3CCOCC32)C(=O)N1c1ccccc1 (stereo not given),"inconclusive [activator, single point]"
10,COC(=O)C1=C(c2cccc(C#N)c2)C[C@@H]2CC[C@H]1N2C(=O)NCCc1ccccc1,inactive
11,CC12CC[C@H]3[C@@H](CCC4(O)C[C@H](O)CCC34/C=N/NC(=O)c3ccc(O)cc3)C1(O)CCC2C1=CC(=O)OC1 (stereo not given in full),inactive
12,c1ccc2c(c1)OCC(C1=NCCN1)O2 (stereo not given),inactive and active: 13.3 µM and active: 18.4 µM
13,O=C(CCC(=O)N1C[C@H]2C[C@@H](C1)c1cccc(=O)n1C2)NCc1ccccc1C(F)(F)F,"inconclusive [activator, full curve, poor fit]"
14,O=C1CC(N2CC=C(c3ccc(F)cc3)CC2)C(=O)N1c1ccc(F)cc1 (stereo not given),"inconclusive [activator, single point]"
15,CN(C)c1ccc(-[n+]2c(-c3ccccc3)cc(-c3ccccc3)cc2-c2ccccc2)cc1,"inconclusive [activator, partial curve, poor fit]"
16,CC1CCC(C(C)C)C(OC(=O)COC(=O)c2ccccc2N)C1 (stereo not given),"inconclusive [activator, partial curve, poor fit]"
17,COC(=O)C1=C(c2cccc(OCc3ccccc3)c2)C[C@@H]2CC[C@H]1N2C(=O)NCc1ccc(C(C)(C)C)cc1,"inconclusive [activator, single point]"
18,O=C(COc1ccc(Cl)cc1)N(c1ccccc1Cl)C1CN2CCC1CC2 (stereo not given),"inconclusive [activator, partial curve, poor fit]"
19,CCCC(C)c1nnc(NC(=O)CCS(=O)(=O)c2ccccc2)s1 (stereo not given),"inconclusive [activator, single point]"
20,C[C@]12CCC3C(C[C@@H](O)[C@H]4C[C@@H](O)CC[C@]34C)C1CC[C@@H]2O (stereo not given in full),inactive

row,Compound,Potency
1,c1ccc(Nc2ccc(Nc3ccccc3)cc2)cc1,inactive
2,Cn1c(O)c(C2=NN(C(=O)CCl)C(c3ccccc3)C2)c(=O)n(C)c1=O (stereo not given),inactive
3,C[C@@H]1O[C@@H](O[C@@H]2C=C3CCC4C(CC[C@]5(C)[C@@H](c6ccc(=O)oc6)CC[C@]45O)[C@@]3(C)CC2)[C@H](O)[C@H](O)[C@H]1O (stereo not given in full),"inconclusive [activator, full curve, poor fit]"
4,COC1C(O)C(C)OC(OC2CCC3(C=O)C(CCC4C3CCC3(C)C(C5=CC(=O)OC5)CCC43O)C2)C1O (stereo not given),"inconclusive [activator, full curve, poor fit]"
5,CC12CC[C@H]3[C@@H](CCC4(O)C[C@H](O)CCC34/C=N/NC(=O)c3ccccc3O)C1(O)CCC2C1=CC(=O)OC1 (stereo not given in full),"inconclusive [activator, single point]"
6,CCOc1cc(/C=C2/NC(=O)N(CC(=O)Nc3cccc(C)c3)C2=O)ccc1O,"inconclusive [activator, partial curve, poor fit]"
7,COC(=O)C1=C(c2ccc3ccccc3c2)C[C@@H]2CC[C@H]1N2C(=O)N1CCCC1,inactive
8,COc1c(C)cc(C(=O)C2CCCN(Cc3ccccn3)C2)cc1C (stereo not given),"inconclusive [activator, full curve, poor fit]"
9,COc1ccc(N=Cc2c(O)n(Cc3cccs3)c(=O)[nH]c2=O)cc1,"inconclusive [activator, single point]"
10,COc1ccc(CN(CCc2c[nH]c3ccccc23)Cc2ccc(OC)cc2)cc1,"inconclusive [activator, full curve, poor fit]"
11,Cc1ccc(C(C)C)c(OCC#CCN2CCCC2)c1,inactive
12,COc1cc(OC)cc(-c2sc3ccc(OC)cc3c2-c2ccc(OCCN3CCOCC3)cc2)c1,"inconclusive [activator, full curve]"
13,O=C1NC2NC(=O)N([N+](=O)[O-])C2N1 (stereo not given),"inconclusive [activator, single point]"
14,O=[N+]([O-])c1ccc(N2CCNCC2)cc1N1CCCCCC1,"inconclusive [activator, partial curve, poor fit]"
15,Oc1cc(Cl)c(Cl)cc1Cl,inactive
16,CC(O)(CS(=O)(=O)c1cccc(C(F)(F)F)c1)C(=O)Nc1cccc(C(F)(F)F)c1 (stereo not given),inactive
17,CCCCc1cc(=O)oc2c3c(cc(OCC(=O)N4CCC[C@H]4C(=O)O)c12)OC(C)(C)CC3,"inconclusive [activator, single point]"
18,CCCCn1c(N)c(C(=O)OCC2CCCO2)c2nc3ccccc3nc21 (stereo not given),inactive
19,C1CCCN(C2CCNCC2)CC1,inactive
20,Cc1ccc(NP(=O)(Oc2ccccc2F)Oc2ccccc2F)cc1,active: 18.4 µM
